IC50 is the fitted dose that halves viability relative to control wells, and lower means more sensitive; where the fit passes the top or lowest dose, that dose stands as a limit. AUC, from the same fit, is the share of area under the viability curve across the 256-fold dose range; it is 1 without any effect and falls as sensitivity rises. For part of these data: The top dose, if marked as inferred, comes from the curve model; the source does not state it. For part of these data: Where an entry number is given, a second screen of the drug exists; the two often differ.
Columns and labels:
Assay in all cases: Viability of human cancer cell lines after 72 h of drug (GDSC screen)
Masitinib = compound: Cc1ccc(NC(=O)c2ccc(CN3CCN(C)CC3)cc2)cc1Nc1nc(-c2cccnc2)cs1 [Masitinib]; details: top dose 20 µM
Method: (§1)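 Human cancer cell lines in 384-well plates, medium with 10% serum, drug for 72 h over a 256-fold dose range (nine 2-fold or five 4-fold steps up to the top dose). Adherent lines were fixed and stained with the nucleic acid dye Syto60, suspension lines read with resazurin; signal relative to control wells, capped at 0 and 100%. One two-parameter sigmoid per drug and line, fitted in a mixed model over all curves with the slope shared within a line.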

LAQ824 = compound: O=C(/C=C/c1ccc(CN(CCO)CCc2c[nH]c3ccccc23)cc1)NO [LAQ824]; details: top dose 1.024 µM; top dose inferred
Method: as §1

HG-5-88-01 = compound: COc1cc(N2CCC(C(N)=O)CC2)ccc1Nc1nc(N)c(Cl)c(Nc2ccccc2S(=O)(=O)C(C)C)n1 [HG-5-88-01]; details: top dose 10 µM; top dose inferred
Method: as §1

Elesclomol = compound: CN(NC(=O)CC(=O)NN(C)C(=S)c1ccccc1)C(=S)c1ccccc1 [Elesclomol]; details: top dose 0.2 µM; top dose inferred
Method: as §1

VNLG/124 = compound: CCCC(=O)OCc1ccc(OC(=O)/C=C(C)/C=C/C=C(C)/C=C/C2=C(C)CCCC2(C)C)cc1 [VNLG/124]; details: top dose 5.12 µM; top dose inferred
Method: as §1

Bleomycin = compound: Cc1c(N)nc([C@H](CC(N)=O)NC[C@H](N)C(N)=O)nc1C(=O)N[C@H](C(=O)N[C@H](C)[C@@H](O)[C@H](C)C(=O)N[C@H](C(=O)NCCc1nc(-c2nc(C(=O)NCCC[S+](C)C)cs2)cs1)[C@@H](C)O)[C@@H](OC1OC(CO)C(O)C(O)C1OC1OC(CO)C(O)C(OC(N)=O)C1O)c1cnc[nH]1 [Bleomycin]
Method: as §1

OSI-930 = compound: O=C(Nc1ccc(OC(F)(F)F)cc1)c1sccc1NCc1ccnc2ccccc12 [OSI-930]; details: top dose 10.24 µM
Method: as §1

Tamoxifen = compound: CC/C(=C(\c1ccccc1)c1ccc(OCCN(C)C)cc1)c1ccccc1 [Tamoxifen]; details: top dose 5 µM
Method: as §1

NSC-87877 = compound: O=S(=O)(O)c1ccc2cc(N=Nc3cc(S(=O)(=O)O)c4cccnc4c3O)ccc2c1 [NSC-87877]; details: top dose 16 µM; top dose inferred
Method: as §1

BX-912 = compound: O=C(Nc1cccc(Nc2ncc(Br)c(NCCc3cnc[nH]3)n2)c1)N1CCCC1 [BX-912]; details: top dose 10.24 µM; top dose inferred
Method: as §1

[1] = top dose 50 µM, screen: GDSC drug entry 1378, top dose inferred
[2] = top dose 64 µM, screen: GDSC drug entry 190

Cell Line | AUC (Masitinib) | IC50 (Masitinib) [µM] | AUC (LAQ824) | IC50 (LAQ824) [µM] | AUC (HG-5-88-01) | IC50 (HG-5-88-01) [µM] | AUC (Elesclomol) | IC50 (Elesclomol) [µM] | AUC (VNLG/124) | IC50 (VNLG/124) [µM] | AUC (Bleomycin; [1]) | IC50 (Bleomycin; [1]) [µM] | AUC (Bleomycin; [2]) | IC50 (Bleomycin; [2]) [µM] | AUC (OSI-930) | IC50 (OSI-930) [µM] | AUC (Tamoxifen) | IC50 (Tamoxifen) [µM] | AUC (NSC-87877) | IC50 (NSC-87877) [µM] | AUC (BX-912) | IC50 (BX-912) [µM]
GRANTA-519 (B-cell lymphoma, suspension) | 0.876 | 16.4 | 0.562 | 0.093 | 0.989 | > 10 | 0.928 | > 0.2 | 0.991 | > 5.12 | 0.826 | 26.2 | 0.584 | 6.63 | 0.973 | > 10.2 | 0.989 | > 5 | 0.988 | > 16 | 0.859 | 7.18
GT3TKB (stomach, adherent) | 0.988 | > 20 | 0.472 | 0.0541 | 0.985 | > 10 | 0.622 | 0.0259 | 0.984 | > 5.12 | 0.091 | < 0.195 | 0.05 | < 0.25 | 0.976 | > 10.2 | 0.927 | > 5 | 0.979 | > 16 | 0.97 | > 10.2
H9 (lymphoid neoplasm, suspension) | 0.957 | > 20 | 0.196 | 0.01 | 0.973 | > 10 | 0.897 | 0.17 | 0.986 | > 5.12 | 0.781 | 17 | 0.198 | 0.637 | 0.979 | > 10.2 | 0.977 | > 5 | 0.984 | > 16 | 0.892 | 8.26
H513 (mesothelioma, semi-adherent) | 0.977 | > 20 | 0.776 | 0.502 | 0.945 | > 10 | 0.854 | > 0.2 | 0.986 | > 5.12 | 0.766 | 22.3 | 0.906 | > 64 | 0.984 | > 10.2 | 0.984 | > 5 | 0.894 | > 16 | 0.975 | > 10.2
H2369 (mesothelioma, adherent) | 0.97 | > 20 | 0.265 | 0.0133 | 0.972 | > 10 | 0.421 | 0.00753 | 0.983 | > 5.12 | 0.636 | 7.5 | 0.436 | 2.66 | 0.977 | > 10.2 | 0.982 | > 5 | 0.847 | 12.4 | 0.969 | > 10.2
H2461 (mesothelioma, adherent) | 0.983 | > 20 | 0.487 | 0.0586 | 0.94 | > 10 | 0.365 | 0.00482 | 0.97 | > 5.12 | 0.571 | 5.14 | 0.224 | 0.496 | 0.972 | > 10.2 | 0.977 | > 5 | 0.977 | > 16 | 0.968 | > 10.2
H2595 (mesothelioma, adherent) | 0.979 | > 20 | 0.488 | 0.0585 | 0.914 | > 10 | 0.671 | 0.0455 | 0.933 | > 5.12 | 0.578 | 5.54 | 0.266 | 0.648 | 0.974 | > 10.2 | 0.966 | > 5 | 0.978 | > 16 | 0.972 | > 10.2
H2722 (mesothelioma, adherent) | 0.871 | > 20 | 0.575 | 0.107 | 0.927 | > 10 | 0.62 | 0.0285 | 0.97 | > 5.12 | 0.513 | 3.41 | 0.561 | 6.05 | 0.974 | > 10.2 | 0.968 | > 5 | 0.979 | > 16 | 0.804 | 6.33
H2731 (mesothelioma, adherent) | 0.847 | 18 | 0.555 | 0.0923 | 0.95 | > 10 | 0.402 | 0.00645 | 0.984 | > 5.12 | 0.349 | 1.11 | 0.821 | 44.1 | 0.972 | > 10.2 | 0.982 | > 5 | 0.959 | > 16 | 0.448 | 0.451
H2795 (mesothelioma, adherent) | 0.877 | 19.6 | 0.777 | 0.406 | 0.903 | > 10 | 0.795 | 0.0916 | 0.987 | > 5.12 | 0.796 | 23.1 | 0.661 | 11.2 | 0.987 | > 10.2 | 0.984 | > 5 | 0.987 | > 16 | 0.578 | 1.04
H2869 (mesothelioma, adherent) | 0.968 | > 20 | 0.582 | 0.113 | 0.88 | > 10 | 0.598 | 0.0248 | 0.984 | > 5.12 | 0.763 | 22.2 | 0.733 | 22 | 0.978 | > 10.2 | 0.98 | > 5 | 0.984 | > 16 | 0.764 | 4.58
H3118 (head and neck, adherent) | 0.899 | > 20 | 0.226 | 0.00931 | 0.732 | 3.07 | 0.576 | 0.0206 | 0.975 | > 5.12 | 0.205 | 0.379 | 0.37 | 1.69 | 0.98 | > 10.2 | 0.888 | > 5 | 0.851 | 14.1 | 0.864 | > 10.2
